# Reference: paper PMC12136788
# The other results are listed elsewhere or left out.
# B1: 6297262_6297599_909_CDS_ENSMUSG00000041164_ENSMUST00000102914|mouse|control|control (ssRNA)
# RNA: GGGAGUUCUACAGUCCGACGAUCAGGGCCAGGGGGCUGCCCAGGGCCAGGAGCAUACUGGGCAGUGUUGGCUGCAUACUGGCCUCCUUGCAGAUACUGCUGCCCAGGAUACACCUCUGAGUAGGCUCUCUUGAUCCCCUGUCGCAACAGAGGAUUGAGCAUCA
# B2: chr11:4127340:4127341:+_ENSG00000167325_ENST00000300738|hu_mus|hu_hu_hu_mus_False|88_98 (ssRNA)
# RNA: GGGAGUUCUACAGUCCGACGAUCGGCAUAGUCAGGGUGCUUAGUAGUCAAGGUUGCGGCUGUCUCAGCAGCCAGGGUGUCCAGUUCCACUGUGGUGACCCCACUAUAUAGGCCUUGGAUUACUUUCAUGGUGAUCUGAGCAGGCAACAGAGGAUUGAGCAUCA
# B3: 130459521_130459641_1828_3pUTR_ENSMUSG00000066735_ENSMUST00000051758|mouse|control|control (ssRNA)
# RNA: GGGAGUUCUACAGUCCGACGAUCCGCACAGACCUUCCUGGUAGAAUGCAAGUUCAAGUUCUCUGCUUCGUGGUAAGGAAGGGAAGGAGGGAUACUUCUGCCCCAGUUCUACCCACAGAAUGAUUUGGUUUGAGAUUUUAAGACCAACAGAGGAUUGAGCAUCA
# B4: chr7:7679991:7679992:-_ENSG00000106399_ENST00000396682|hu_hu|hu_hu_hu_mus_False|38_88 (ssRNA)
# RNA: GGGAGUUCUACAGUCCGACGAUCUGGGAUGAAUCUUUUCCAGCUUCCCUACGAAGCACACGGGCCGGUCGAUAUACUGUGGUAACAUGCUGGCGUUGAUGCGCGACUUGGGGAGCUGCAUUAUGUCCUCCAUGAUUCUGCCGCCAACAGAGGAUUGAGCAUCA
# B5: chr8:133025090:133025091:+_ENSG00000132294_ENST00000254624|hu_hu|FALSE|FALSE (ssRNA)
# RNA: GGGAGUUCUACAGUCCGACGAUCAUAAACAUUAAUUGUAAUGGUUUUCCUUUACAUGCAAUACAUGCAUUUUAAAAUCACUAAGAAACACGAAAUUUUGUAGAGCAAAGUUUGUGUUUCACGUAAGUGCAAAUGAAUAUAUAUCAACAGAGGAUUGAGCAUCA
# B6: chr12:42180722:42180723:-_ENSMUSG00000036295_ENSMUST00000043884|mus_hu|mus_mus_mus_hu_True|18_18 (ssRNA)
# RNA: GGGAGUUCUACAGUCCGACGAUCCUGUAGGAGAAGAAUCUGUGUGUUAGCUGGCAAUCUGGCUGGGAAAGUUAAAAGACCUAAAUCAUUACAAUCCACUGUAGAUGCUUCCAUAUAGAUGGAUCUCGGUGUAAACCAAGGCCUCAACAGAGGAUUGAGCAUCA
# B7: chr2:232320318:232320319:-_ENSG00000115053_ENST00000322723|hu_hu|hu_hu_hu_mus_True|28_68 (ssRNA)
# RNA: GGGAGUUCUACAGUCCGACGAUCACUAUUAAAGUCUACAAAACCAAACCCUUUGGAAGAACCAGUUUCCCGGUCAGUGACUAUUCUUGCACGAACAGAGCCCUCAAAUGACUCCUUUAAGGUCUCUUCAGUGGUAUCCUCAGACAACAGAGGAUUGAGCAUCA
# B8: chr18:56819859:56819860:+_ENSG00000166562_ENST00000588875|hu_mus|hu_hu_hu_mus_True|38_68 (ssRNA)
# RNA: GGGAGUUCUACAGUCCGACGAUCAACCUUGAUUACUCUGUGAACUAUCGGAAUGUCUCUUCCUUCAACUUUAAAAACAACUAUUUCACCAGCUCUGAUUGGGUCUUCCCGGAAAUUCGUGAGGAACAGCAGAUCUCCUCUGUGCAACAGAGGAUUGAGCAUCA
# B9: 2160769_2160889_696_CDS_ENSG00000157933_ENST00000378536|human|control|control (ssRNA)
# RNA: GGGAGUUCUACAGUCCGACGAUCACACUUGCCGAAGCACUCGUGGUACACGCGGACGCUGCGCUCGCUGAGCUCCAGGCCCAGCGCCAGGCUGGCGGCCAGCUCCUUCUUGCAGGGCGGCGGGUAGGCGCCGCCGUAGAGCAGCAACAGAGGAUUGAGCAUCA
# B10: chr1:10024197:10024198:-_ENSMUSG00000025917_ENSMUST00000027050|mus_mus|motif|central (ssRNA)
# RNA: GGGAGUUCUACAGUCCGACGAUCCAGCAUCUGUGUACUAACAUCAAUCCCGGAGAGCCAGCAGCCAUAACCAGGGUGGCGGUGAUACCAACCGAUUGCAUUCUCAAGGCGGCCAACCUGUUUGGCAUUUUCUAUGUAUGCAGCCAACAGAGGAUUGAGCAUCA
# B11: chr11:87793471:87793472:-_ENSMUSG00000020483_ENSMUST00000020775|mus_mus|mus_mus_mus_hu_False|48_68 (ssRNA)
# RNA: GGGAGUUCUACAGUCCGACGAUCUGGACUUGAAAAUAAAAGAAUAAGCUGGAUCCCCCACCCCCCCACAGUGUCAACCCUACACGAGUUCUGAAUGGGCGACUCAUGAAAAUCAGCAGCUCAAACGGCAAUGACCACCCCACCCAACAGAGGAUUGAGCAUCA
# B12: chr14:66974463:66974464:+_ENSMUSG00000022044_ENSMUST00000074523|mus_hu|mus_mus_mus_hu_False|38_108 (ssRNA)
# RNA: GGGAGUUCUACAGUCCGACGAUCUUGUAGGAUGAUUUAUUCAGGGGAUCGGCCAGGAAGCAGGAGCAGAACAAGGACACCAGCGGGAGCUCCUUCAUCUUCUCCUUGUAGGCAGCAAGGGUCAUGUUUCUGGGAUCUGGUGGCCAACAGAGGAUUGAGCAUCA
# B13: chr1:183139419:183139420:-_ENSMUSG00000038733_ENSMUST00000162963|mus_hu|FALSE|FALSE (ssRNA)
# RNA: GGGAGUUCUACAGUCCGACGAUCUUAUCCCAGUCUCCUUCCAUGACAUGAUUUCGGAAUUUGGUAGCAGAAGGAUGUUCUAAACGACAUCCUGACUCUUGCAUGAGGAGAUCAACAGUCUGGUUGAGCCCUAAGCCAUUCAAGCAACAGAGGAUUGAGCAUCA
# B14: chr4:25749455:25749456:-_ENSG00000091490_ENST00000264868|hu_hu|hu_hu_hu_mus_False|8_28 (ssRNA)
# RNA: GGGAGUUCUACAGUCCGACGAUCGCACUAUGACCUCUAGAAAAAUCCACAGGGGGAAAAAAUGUAAACCAAUGUACAAUGUUAUCGCCUUCCCUGUGUGUGGAGUGACAAACAAUUGGCUCCUUCUUGCCUUAUAAUUUGGGACAACAGAGGAUUGAGCAUCA
# B15: 165213534_165213654_165_5pUTR_ENSMUSG00000017667_ENSMUST00000103084|mouse|control|control (ssRNA)
# RNA: GGGAGUUCUACAGUCCGACGAUCCGCCCGGAGGCCUGCAGCCCCGGGGGCGCCCGCUAGCCUCGCCCGGCCCCUGGACACGCGCAAGCCUCCGCGGGCCCCAGGAAGGCGCUGGUUCUUCUGAUCCUGCCCCGGAGUCGCCACCAACAGAGGAUUGAGCAUCA
# B16: chr15:77794528:77794529:-_ENSMUSG00000016554_ENSMUST00000100484|mus_hu|FALSE|FALSE (ssRNA)
# RNA: GGGAGUUCUACAGUCCGACGAUCGGUGGUGACAGUGUGGAAGAUGCGCUUGAUGCUCCGCAGUGGCUUCUCACUCCUCGUGGUGAUGCGGUCAAAGGCUUUGUCGUAGUAUUCUAGGGCCCCACAACACUCAAUGUCCUGUGGCAACAGAGGAUUGAGCAUCA
# B17: chr11:30352807:30352808:+_ENSG00000152219_ENST00000282032|hu_hu|motif|central (ssRNA)
# RNA: GGGAGUUCUACAGUCCGACGAUCCUUCCAACCAGGUACAAGCUGUCUUCCAAAUUUAGCACUCAGAAAAGUGGCAUCAUCGGAGUCAAUUACAUGCAAAUUUUUUUUGGCUAAUUUCUUGUGUAUGUUAAAUGGGUCACAACACAACAGAGGAUUGAGCAUCA
# B18: chr1:145598734:145598735:-_ENSMUSG00000018199_ENSMUST00000159879|mus_mus|FALSE|FALSE (ssRNA)
# RNA: GGGAGUUCUACAGUCCGACGAUCUGGUCUGAUAUUUUUAUUGCAAGAGUCUCAAGGUUUUAAUACUAUCUUCAAUUCUCUAAAUGACUUUGCUCAUAGGUUUGAACCAAAACAUUUGCCUUUUGCCUCAAAAAUUUCCCUUAACAACAGAGGAUUGAGCAUCA
# B19: chr8:104447970:104447971:+_ENSG00000164934_ENST00000297579|hu_hu|hu_hu_hu_mus_False|98_108 (ssRNA)
# RNA: GGGAGUUCUACAGUCCGACGAUCAUAUACCUCCCUGCUUCGACUUUUGUCCACAGGAAAGAUUCUAAUAGACUUAUCAAAGCUGGCAGACACAAAUUCCUUCCCAGUGGGAGAGUAGUCCACAUCAAGUACUGCAGACACGUGCAACAGAGGAUUGAGCAUCA
# B20: chr11:77340882:77340883:-_ENSG00000074201_ENST00000525064|hu_hu|motif|central (ssRNA)
# RNA: GGGAGUUCUACAGUCCGACGAUCAACAUACAAAUGCUCUCCUAGACAGUCACUUCGGUCCCUGGAUAAUGCAUGUAAACGGAUGGUGGGGUAUUCCAGUGAGAAUCCUAAUCCAGAGCCAUCUAACCAAGACAGGCGGCUCUCCAACAGAGGAUUGAGCAUCA
# B21: 36855532_36855652_1642_3pUTR_ENSMUSG00000069662_ENSMUST00000092584|mouse|control|control (ssRNA)
# RNA: GGGAGUUCUACAGUCCGACGAUCUAUAUGGGUAUGUCUAUAGAUCUGACAAAGAAAGUUUACACUUUUUUAAUAAAGAUGCAAAGUAUGCAAAAAACAUUAAUACUGAUGCCAAAAAAAAAAAAAAAAAGUAAAAGUAAAGAACAACAGAGGAUUGAGCAUCA
# B22: 75685298_75688095_504_CDS_ENSMUSG00000020230_ENSMUST00000020452|mouse|control|control (ssRNA)
# RNA: GGGAGUUCUACAGUCCGACGAUCGACGCUGUGGUACUUGGUGGUCCGAGGCUGGUCAGCCAACAUUUCCAGGUGAAGUUUCAGAGUUCCAUAGCUGUCGAAGUACUCCUCGUCCUGCCAGGUGUCCUCCGGGUCGUAUUCCUCCAACAGAGGAUUGAGCAUCA
# Target: T1, UNK ZnF1-3 (human, UniProt Q9C0B0 31-174)
# T1 sequence: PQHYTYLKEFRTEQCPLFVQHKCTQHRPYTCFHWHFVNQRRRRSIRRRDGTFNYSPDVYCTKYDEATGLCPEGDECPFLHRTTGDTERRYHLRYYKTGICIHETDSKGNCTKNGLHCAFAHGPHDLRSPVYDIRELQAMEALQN
# Assay: nsRBNS (natural sequence RNA bind-n-seq); RBNS binding buffer (assumed for nsRBNS): 25 mM Tris pH 7.5, 150 mM KCl, 3 mM MgCl2, 0.01% Triton X-100, 500 ug/ml BSA, 20 U/ml SUPERase-In, 4 C; UNK is unkempt and MSI1 is Musashi-1; names of the RNAs are library labels; protein concentration not given here; high values mean tight binding
row,Binder,binding signal [enrichment R]
1,B1,0.409
2,B2,0.956
3,B3,1.36
4,B4,0.484
5,B5,0.273
6,B6,0.956
7,B7,0.534
8,B8,0.774
9,B9,0.502
10,B10,1.53
11,B11,1.63
12,B12,2.39
13,B13,0.562
14,B14,1.03
15,B15,1.47
16,B16,0.83
17,B17,2.07
18,B18,0.75
19,B19,0.926
20,B20,1.42
21,B21,1.04
22,B22,0.823
